34 variants from the RNAGym collection of RNA variant scans (doi:10.1093/nar/gkz1192) can be followed below.

The source gives no read counts; variants with many changes may rest on few reads.

To fix the notation:
B1: CPEB3 Ribozyme (parent)
chain: UAACAGGGGGCCACAGCAGAAGCGUUCACGUCGCAGCCCCUGUCAGAUUCUGGUGAAUCUGCGAAUUCUGCUGUAUAUCUC

Variants of B1 are the subject of the data set. As to the kind of experiment: self-cleavage, relative activity (ratio to wild type); higher = more cleavage; in vitro, sequencing. The method in brief:
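For each CPEB3 ribozyme variant, relative activity is its cleaved/total read fraction divided by the unmutated ribozyme's. Barcoded error-prone PCR libraries were transcribed by T7 RNA polymerase (5 hours, 37°C) and held in DNase I for 15 min before an EDTA stop, with cleavage occurring throughout. Template-switching reverse transcription and Illumina sequencing were used to read the RNAs. A 5-read minimum applied, and results are the mean of three batches.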
For UAACAGGGGGCCACAGCAGAGGCGUUCACGUCGCAGCCCCUGUCAGAUUCUGGAGAAUCUGCGUAUUCUGCUGUAUAUCCC [A21G U54A A64U U80C], the self-cleavage turned out to be 0.14.

As for UAACAGGGGGCCACAGCAGAGGCGUUCACGUCGCAGCCCCUGUCAGAUUCUGGAGAAUCUGCGAAUUCCGCUGUAUAUCUC [A21G U54A U69C], the self-cleavage came to 0.19.

As for UAACAGGGGGCCACAGCAGAGGCGUUCACGUCGCAGCCCCUGUCAGAUUCUGGUGAAACUGCGAAUUCCGCCGUAUAUCUC [A21G U58A U69C U72C], the self-cleavage amounted to 0.21.

For the variant UAACAGGGGGCCACAGCAGAGGCGUUCACGUCGCAGCCCCUGUCAGAUCCUGGUGAAUCUGCGAAUUCUGCUGUAUACCUC [A21G U49C U78C], the self-cleavage was 0.39.

Turning to UAACAGGGGGCCACAGCAGAGGCGUUCACGUCGCAGCCCCUGUCAGAUUCUGGGGAAUCUGCGGAUUCUGCUGAAUAUCUC [A21G U54G A64G U74A], the self-cleavage came out at 0.59.

For UAACAGGGGGCCACAGCAGAGGCGUUCACGUCGCAGCCCCUGUCAGAUUCCGGUGAACCUGUGAACUCUGCUGUAUAUCUC [A21G U51C U58C C62U U66C], the self-cleavage is 0.07.

Consider UAACAGGGGGCCACAGCAGAGGCGUUCACGUCGCAGCCCCUGCCAGAUUCUGGUGAAUCUGCGGAUUCUGCUGUAUGUCUC [A21G U43C A64G A77G], for which the self-cleavage turned out to be 0.17.

Consider UAACAGGGGGCCACAGCAGAGGCGUUCACGUCGCAGCCCCUGUCAGAGUCUGGUGAAUCAGCGAAUUCUGCUGUAAAUCUC [A21G U48G U60A U76A], for which the self-cleavage was 0.17.

As for UAACAGGGGGCCACAGCAGAGGCGUUCACGUCGCAGCCCCUGCCAGAUUCUGGUGAAUUAGCGCAUUCUGCUGUAUAUCUC [A21G U43C C59U U60A A64C], the self-cleavage was found to be 0.11.

Turning to UAACAGGGGGCCACAGCAGAGGCGUUCACGUCGCAGCCCCUGCCAGAUUAUGGUGAAUCUGCGAACUCUGCGGUAUAUCUC [A21G U43C C50A U66C U72G], the self-cleavage worked out at 0.09.

As to UAACAGGGGGCCACAGCAGAGGCGUUCACGUCGCAGCCCCUGACAGAUUCCGGUUAAUCUGCGAAUUCUGCAGUAUAUCUC [A21G U43A U51C G55U U72A], the self-cleavage came out at 0.37.

For the variant UAACAGGGGGCCACAGCAGAGGCGUUCACGUCGCAGCCCCUGUCAGAUUCCGGUGAACCUGCGAAUUCUGCUGUAUAUCUC [A21G U51C U58C], the self-cleavage worked out at 0.1.

Turning to UAACAGGGGGCCACAGCAGAGGCGUUCACGUCGCAGCCCCUGUCAGAUCCUGUUGAAUCUGCGAAUUCUGCUGUAUAUCUC [A21G U49C G53U], the self-cleavage was 0.5.

As for UAACAGGGGGCCACAGCAGAGGCGUUCACGUCGCAGCCCCUGUCAGAUUCUGGCGAAUCAGCGAAUACUGCUGUAUAUCUC [A21G U54C U60A U67A], the self-cleavage amounted to 0.16.

Turning to UAACAGGGGGCCACAGCAGAGGCGUUCACGUCGCAGCCCCUGUCAGACUCUGGUGAACCUGCGAAUUCUGCUGUAUAUCUC [A21G U48C U58C], the self-cleavage came out at 0.11.

In the case of UAACAGGGGGCCACAGCAGAGGCGUUCACGUCGCAGCCCCUGUCAGAUUCUGGAGAAUCUGCAAAUUCUGCUGUAUAUCUC [A21G U54A G63A], the self-cleavage stood at 0.6.

Consider UAACAGGGGGCCACAGCAGAGGCGUUCACGUCGCAGCCCCUGUCAGAUUCAGGUGAAUCUGGGAAUUCUGCUGUAUAUAUC [A21G U51A C62G C79A], for which the self-cleavage was found to be 0.21.

As to UAACAGGGGGCCACAGCAGAGGCGUUCACGUCGCAGCCCCUGUCAGAUUCAGGUAAAUCUGCGAAUCCUGCCGUAUACCUC [A21G U51A G55A U67C U72C U78C], the self-cleavage stood at 0.17.

Take UAACAGGGGGCCACAGCAGAGGCGUUCACGUCGCAGCCCCUGACAGACUCUGGUGAAUCUGCGAAUUCUGCUGUAUAUCUC [A21G U43A U48C]: the self-cleavage was 0.24.

For the variant UAACAGGGGGCCACAGCAGAGGCGUUCACGUCGCAGCCCCUGUCAGAUCCAGGUGAAUCUGCGAAUUCUGCAGUAUAUCUC [A21G U49C U51A U72A], the self-cleavage amounted to 0.24.

Take UAACAGGGGGCCACAGCAGAGGCGUUCACGUCGCAGCCCCUGUCAGAUUCUGGCGUAUCUGCGAAUUCUGCUGUAUAUCUC [A21G U54C A56U]: the self-cleavage is 0.22.

Consider UAACAGGGGGCCACAGCAGAGGCGUUCACGUCGCAGCCCCUGUCAGAUUCAGGUGUAUCUGCGAAUUCUGCUGUAUAUCUC [A21G U51A A56U], for which the self-cleavage was determined as 0.29.

For the variant UAACAGGGGGCCACAGCAGAGGCGUUCACGUCGCAGCCCCUGUCAGACUCUGGUGAAUCUGCGGAUUCUGCUGUAUAUCCC [A21G U48C A64G U80C], the self-cleavage worked out at 0.19.

Consider UAACAGGGGGCCACAGCAGAGGCGUUCACGUCGCAGCCCCUGUCAGAUCCUGGUGAGUCUGCGAAUUCUGCUGUAUAUCAC [A21G U49C A57G U80A], for which the self-cleavage amounted to 0.44.

UAACAGGGGGCCACAGCAGAGGCGUUCACGUCGCAGCCCCUGCCAGAUUCUGGUGAAUCCGCGAAUACUGCUGUAUAUCUC [A21G U43C U60C U67A]: the self-cleavage is 0.26.

Regarding UAACAGGGGGCCACAGCAGAGGCGUUCACGUCGCAGCCCCUGCCAGAUUCUGGUGUAUCUGCGAAUUCUGCUGUAUAUCUC [A21G U43C A56U], the self-cleavage worked out at 0.59.

On to UAACAGGGGGCCACAGCAGAGGCGUUCACGUCGCAGCCCCUGCCAGAUUCUGGUGGAUCUGCGAAUUCUGCUGUAUAUCUC [A21G U43C A56G], for which the self-cleavage was 0.16.

With UAACAGGGGGCCACAGCAGAGGCGUUCACGUCGCAGCCCCUGUCAGAUUCUGGCGAAUCUGCGAAUUCUAGUGUAUAUCUC [A21G U54C G70A C71G], the self-cleavage came out at 0.08.

For UAACAGGGGGCCACAGCAGAGGCGUUCACGUCGCAGCCCCUGCCAGAUUCUGGUGAAUUUGCGAAUUCUGCUGUAUACCUC [A21G U43C C59U U78C], the self-cleavage was found to be 0.22.

With UAACAGGGGGCCACAGCAGAGGCGUUCACGUCGCAGCCCCUGUCAGAUUCCGGUGAAUCUGUGAAUCCUGCUGUAUAUCUC [A21G U51C C62U U67C], the self-cleavage is 0.12.

As for UAACAGGGGGCCACAGCAGAGGCGUUCACGUCGCAGCCCCUGUCAGAUACAGGUGAAUCUGCGAGUUCUGCUGUAUAUCUC [A21G U49A U51A A65G], the self-cleavage came out at 0.08.

As for UAACAGGGGGCCACAGCAGAGGCGUUCACGUCGCAGCCCCUGUCAGAGUCUGGUGAAUCUGCGAAUUCUGCCGUAUAUCUC [A21G U48G U72C], the self-cleavage worked out at 0.33.

UAACAGGGGGCCACAGCAGAGGCGUUCACGUCGCAGCCCCUGACAGAUUCUGGUGAACCUGCGAAUUCUGCUGUAUAUCUC [A21G U43A U58C]: the self-cleavage was 0.12.

In the case of UAACAGGGGGCCACAGCAGAGGCGUUCACGUCGCAGCCCCUGUCAGACUCUGGUGAAUCUGCGAGUUCUGCUGUAUAUCUC [A21G U48C A65G], the self-cleavage is 0.13.
